Measured values from the supplement of paper PMC3334620.
Over roughly 33,000 sequences, “E-score (-0.5 to 0.5)” has its median near -0.056; the highest 2% begin near 0.38. The list shows a part of the results.

Molecular target: Stb4 (UniProt P50104)
Assay: PBM E-score (8-mer binding enrichment) (E-score (-0.5 to 0.5)); higher = stronger / more preferred TF binding; most listed sequences are background and not binding sites
Conditions: protein concentration: 200 nM; construct: GST-DNA-binding domain
Description: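 Universal 'all 10-mer' protein binding microarrays (Agilent AMADID 015681) probed with GST-tagged S. cerevisiae TFs (full-length or DBD) made by in vitro transcription/translation (PURExpress), about 100-200 nM. Bound TF was detected with fluorescent anti-GST. Each ungapped 8-mer (which stands for itself and its reverse complement) is scored by the PBM enrichment score (E-score), a modified Wilcoxon-Mann-Whitney statistic from -0.5 to +0.5, computed with the Universal PBM Analysis Suite. Scale: above 0.35 generally sequence-specific binding.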

Sequence	PBM E-score
ACAATTCA	-0.164
ATGTATTC	0.199
ACACCTGC	-0.155
TCCTGTAA	-0.212
ACGTAAGA	-0.178
GACTCGAA	0.0374
TAATTCAA	0.00504
CTGTCGCC	-0.0279
GCGAGTCC	-0.0651
ATCGGGCC	0.274
AATCAACA	-0.0365
CTTGAGCC	-0.00056
GAGCTCTA	-0.147
CGCCTGGA	-0.131
CTGTCAAA	-0.136
ATAGGCAT	-0.0616
ACTACTAT	-0.055
GTCACACA	-0.0169
GATGGCGC	-0.0995
CGTGGATC	-0.116
GGCAATAC	0.205
CGAGACCG	0.28
GCCTTCGA	-0.237
CCATCCCG	0.214
AAAAGATA	-0.0815

Sequence	PBM E-score
CTTATCCA	0.0242
ACCATGGC	-0.0659
GATTTGCA	-0.0581
AACTCCTG	-0.111
AACCGATA	0.227
TATCTCAA	-0.0915
ACATCTAG	-0.213
CTTCATAC	-0.103
ATCAACAC	-0.101
CCGTGCGA	0.17
CTGAAAGA	-0.0709
TCTAGACA	-0.152
AAGCAGAC	-0.0699
AGTGGAAA	-0.075
GTGCTTTA	-0.191
CCTTTGCC	0.0171
AATTCGTA	0.0882
GAGAGCGA	-0.115
CACACATG	-0.15
GGTGTGAA	0.102
ACATTAGA	-0.113
CCTAATAG	-0.0578
CGTTGCAG	-0.168
AATGGCGA	-0.0861
ACACCGTG	0.106

Sequence	PBM E-score
CCGGTTGC	0.316
AAATGGGA	-0.275
CAAATTGG	-0.104
AGACGGCC	0.0725
GCGAAAAA	0.0144
CATCTAAG	0.00761
AGACCTAC	-0.172
CACTTTGG	-0.178
TCGATAAA	0.0308
GCCTTCAC	-0.121
AGGGGTTA	-0.0368
GGCTTGAA	-0.103
CCAACCCG	0.185
GGTTTTAA	0.126
AACATGCA	-0.288
AGACCCTG	-0.254
TAATCGAA	-0.0737
CCTAGCTC	0.0275
CAAGATGG	-0.192
CCACTGCA	-0.135
CATCTGCG	-0.0456
CGTTTTGA	-0.149
AGTTGAAA	-0.00168
CCGACAAG	0.251
CCCTCTCC	-0.0948

Sequence	PBM E-score
ATATGTGA	-0.301
CCAGTGGA	-0.138
CTCCGGGA	0.313
AGATGCGA	-0.0599
CCAAGAGA	-0.132
GAGTAATA	0.106
ACATTACT	-0.154
CCATTAAC	-0.192
AGACTCTC	-0.0419
TCGTGGAA	-0.0505
CGAGATTA	0.263
AAGAAGCC	0.206
CTTCACAC	-0.108
ATAGTAGG	-0.0248
AGGTTCAA	-0.0583
TACCTAAA	-0.0909
GGGCGGAC	0.224
CTGTGCGC	0.0675
ATAACTGA	-0.0497
TGGCACAA	-0.192
GTTGAAAC	0.0717
GGGCTTTA	-0.219
CACTTGTC	0.135
ACGCTGAA	0.0244
TAACTCCA	-0.134

Sequence	PBM E-score
GCGCCTCC	-0.105
CTAGCCGA	0.455
CTTATGGC	-0.154
GTCCAACA	-0.108
AAGACCGT	-0.0619
AGTCCCGA	0.389
CTCGCTGC	-0.0906
AACGTCAT	-0.108
AGTTAGGC	-0.188
AGCATCAA	-0.15
ACGTCCGG	0.157
AAGCGAGA	0.0626
ACCTCGGA	0.463
GACCCGGC	0.268
GCGGCACA	0.121
GGTTCGGA	0.442
CACGTTGA	-0.178
TCTACAGA	-0.0349
ATGAGCGA	-0.03
AGCAAACG	-0.0254
ATTTAACC	0.224
GTTTAGCA	-0.0138
ACCTAAGG	-0.199
ATGGGATG	-0.0874
CTGGCACA	-0.261

Sequence	PBM E-score
ATTTTCGC	-0.0335
GCGTAGTA	-0.15
AATAGCAC	-0.205
CAAATGAC	-0.15
GCCAGGCC	0.00566
AACTCAAC	-0.0617
GTCATCAA	-0.124
CGCGTATA	-0.11
CGGATTAA	0.381
AGGGGCAC	-0.119
GTCCGAAC	0.335
CACAAACG	0.132
CCGTGGAC	0.131
CGGGATAA	0.343
AGTTCAGG	-0.28
AGTGGACA	-0.111
ATCTAGCG	-0.126
CCTTTGGC	-0.165
CGAATTTC	0.258
CACTAGAA	0.0142
CACCTCCG	0.191
AACAACTA	-0.0473
TCCAGCGA	-0.194
CGAGGAGC	0.0986
GCAACTAC	0.0214

Sequence	PBM E-score
GTTACCGA	0.366
CTCTATGC	-0.201
CACGACTA	-0.269
GCTAGCCA	-0.11
TAGAACAA	-0.0766
CACGGGCC	0.189
CTGAACCC	-0.0606
CCAACGAA	-0.0652
GAAGTTCC	0.197
GTACTCCA	-0.133
GAATTCTA	0.0276
GCGACAAC	-0.119
AAGTAACC	-0.0685
GCCTAATA	-0.0764
ATGCGTCA	-0.145
CCTCATTC	-0.214
TAGACCGA	0.152
CTATAAAA	0.00169
ATCGTATG	-0.302
CCGGCGGC	0.282
CACGACAC	-0.0595
CCACAAGA	-0.144
GGATAAAA	0.307
ATAGCATG	-0.0881
AGACACAC	-0.16

Sequence	PBM E-score
CGAACCCC	0.232
ATGTTGTC	-0.0925
AGGTGCGC	-0.119
ATAGCCCC	-0.092
GCCAAGCA	-0.175
CAGATCAA	-0.22
CCATCAAA	-0.188
GTATCATA	-0.0852
AAGCCTTC	-0.0191
CTGGACTC	-0.175
ACGTCAGA	-0.294
CGGTGAAG	-0.0865
CCTTCCCA	-0.066
AGTGGGAT	-0.0287
AAGACCCA	-0.0993
AAATAACA	0.104
GCACACGC	-0.143
CTAATACA	-0.142
GATACGGC	0.068
TAATCTAA	0.0146
CCAGAAGC	0.0876
CGTTGGTC	0.0494
CCTTTCGC	-0.0474
ACTCCTAT	-0.146
CACCGTAG	-0.0514

Sequence	PBM E-score
CGCCCGCG	0.137
CGGGTACA	0.378
CCATCTCA	-0.273
CAAGTCGC	-0.303
ACGAGCAC	-0.133
ACCTTCAA	-0.0963
AGAAATTG	0.0528
CCATCGCA	-0.229
GGCCTATA	-0.0356
CTACTCTC	-0.0273
ATACGCTC	-0.0477
AGTGCGGC	0.124
AATTTTAG	-0.193
AAACTAGC	-0.08
GGATAAAC	0.272
AATACATA	-0.00111
AACGGGCG	-0.0573
GGTTACAA	0.0866
AACCTGCA	-0.23
AAAGCACA	-0.178
AAGAAATC	-0.17
CGCAGGTC	-0.0281
CCCCGTGA	-0.096
GAGAATAA	0.0577
AGAGCGAA	-0.134

Sequence	PBM E-score
GCTCATGA	-0.0848
GAGGGGTA	0.0739
CATTAGAC	-0.184
TATAAATA	0.0782
GGGTTTAC	0.0341
ATACCTAA	-0.241
ATACGCCG	0.177
AGCGAGTA	0.12
AGTGCCAA	-0.29
GGATGGCC	0.00847
CTGAGACC	-0.0773
ACTGGCAC	-0.123
GATCTCAA	-0.00656
TCATCGCA	-0.25
ACTAGCCC	-0.0544
AGAGGCAG	-0.139
AGCACGTG	-0.125
AGGGAGTG	-0.281
AATAGTGA	-0.009
CCTCATAG	-0.165
AACTGTAT	-0.0253
GCTAGTAC	-0.0967
CCAGGAAG	-0.176
CGGCTACC	0.31
AATGCGTC	-0.226

Sequence	PBM E-score
ACGGGAAG	0.232
GTTCCTTA	0.0117
CAGAGTAA	-0.113
CAGAGATA	-0.182
CTGGCTCC	-0.168
AGAGCCTC	-0.246
ACAGCCAT	-0.243
AATGGGGG	-0.246
AGTTCGAT	-0.25
AAGAAAGC	-0.0269
AACTCCGT	0.206
TATCCTCA	-0.0131
AGGCAACT	0.0729
AACGAAAT	0.102
AAGGGACC	-0.0643
ACGGTAAG	0.105
GCGGGTAC	0.222
ACAACACA	-0.242
CAACCGAA	0.289
AGAATGGC	-0.0824
AGGTCGCA	-0.0675
GTTTCAAA	-0.0833
AGGAGGGA	-0.146
AGATAAAT	-0.0431
GACACCAC	0.0163

Sequence	PBM E-score
AATGTAGC	-0.113
ACATACTC	-0.0299
ACGGCAGC	0.15
CGTAGTGA	-0.114
ACAGAGAT	-0.171
CACGCACG	0.0233
ATTTTGCC	0.065
ATTGGGTG	-0.0143
TGCAGTAA	-0.0856
ACCGTGGG	-0.0643
CATCGTGG	-0.171
ACTAGGCA	-0.149
GTCCGGAA	0.373
CCACCTGA	-0.068
ACGGCCTG	-0.0276
GGAACGCC	0.194
AACACCGC	-0.0207
AAAATCAA	0.0231
AGTTCGGA	0.442
TGTCTTAA	-0.0591
ATCACTAC	-0.145
ATTTGCAA	0.0378
CAGGCGGA	0.206
GTCACTCA	0.0365
TAAAGAGA	-0.168

Sequence	PBM E-score
GCAATCTA	-0.0486
ACTGCGTG	-0.279
CAGCGATC	-0.072
TGATAACA	-0.179
GCAGCTCA	-0.125
AATACCCC	0.153
CGCCTCAG	-0.12
ATTTGATC	0.0782
CCTAGAAC	0.0038
CCTATCTA	-0.203
ATGGAATA	0.054
AAAACCAG	-0.0696
ATCCGTCG	0.368
TAATCCCA	-0.0875
GATTGGAC	-0.0333
GAACTGAC	0.064
CTGGTCTC	-0.244
ACCCATTG	-0.126
ACGTTGCC	0.00451
GCAACCAC	-0.0721
AGTTGGAG	-0.269
CCACTAAA	-0.14
ACAACGCA	-0.0967
AATATCTC	0.00887
ACAGAGCA	0.00639

Sequence	PBM E-score
ACTCATTA	-0.255
GTCCTCGA	-0.228
ATATTGCG	0.157
ACGGTGAT	-0.251
AGCAACAA	-0.125
CAACGCGC	0.00145
CTATTAAG	-0.205
TCACGGAA	0.389
AGCCGCCA	0.113
CGGGCTCA	0.0437
AAGCATCC	0.27
ATTGGAAA	-0.136
AGTAAAAT	-0.186
TATCAATA	-0.131
AACCACAC	-0.0263
GTACCTTA	-0.0101
CAATGCAA	-0.0844
GCCTAACA	-0.105
CTGACAGA	-0.0381
